Data on 43 compounds can be found in PMC4336329 (PLoS ONE, 2015).

Molecules are shown by their SMILES. The whole screen tested about 310,000 compounds, of which about 14,000 (4.5%) showed an effect of 50% or more. Effects have a minus sign here. Some of the results follow.
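Further: peak tail current of the secondary pulse compared with the same well before compound.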

Chain of human ether-à-go-go-related gene (hERG) potassium channel (Q12809 whole entry, looked up): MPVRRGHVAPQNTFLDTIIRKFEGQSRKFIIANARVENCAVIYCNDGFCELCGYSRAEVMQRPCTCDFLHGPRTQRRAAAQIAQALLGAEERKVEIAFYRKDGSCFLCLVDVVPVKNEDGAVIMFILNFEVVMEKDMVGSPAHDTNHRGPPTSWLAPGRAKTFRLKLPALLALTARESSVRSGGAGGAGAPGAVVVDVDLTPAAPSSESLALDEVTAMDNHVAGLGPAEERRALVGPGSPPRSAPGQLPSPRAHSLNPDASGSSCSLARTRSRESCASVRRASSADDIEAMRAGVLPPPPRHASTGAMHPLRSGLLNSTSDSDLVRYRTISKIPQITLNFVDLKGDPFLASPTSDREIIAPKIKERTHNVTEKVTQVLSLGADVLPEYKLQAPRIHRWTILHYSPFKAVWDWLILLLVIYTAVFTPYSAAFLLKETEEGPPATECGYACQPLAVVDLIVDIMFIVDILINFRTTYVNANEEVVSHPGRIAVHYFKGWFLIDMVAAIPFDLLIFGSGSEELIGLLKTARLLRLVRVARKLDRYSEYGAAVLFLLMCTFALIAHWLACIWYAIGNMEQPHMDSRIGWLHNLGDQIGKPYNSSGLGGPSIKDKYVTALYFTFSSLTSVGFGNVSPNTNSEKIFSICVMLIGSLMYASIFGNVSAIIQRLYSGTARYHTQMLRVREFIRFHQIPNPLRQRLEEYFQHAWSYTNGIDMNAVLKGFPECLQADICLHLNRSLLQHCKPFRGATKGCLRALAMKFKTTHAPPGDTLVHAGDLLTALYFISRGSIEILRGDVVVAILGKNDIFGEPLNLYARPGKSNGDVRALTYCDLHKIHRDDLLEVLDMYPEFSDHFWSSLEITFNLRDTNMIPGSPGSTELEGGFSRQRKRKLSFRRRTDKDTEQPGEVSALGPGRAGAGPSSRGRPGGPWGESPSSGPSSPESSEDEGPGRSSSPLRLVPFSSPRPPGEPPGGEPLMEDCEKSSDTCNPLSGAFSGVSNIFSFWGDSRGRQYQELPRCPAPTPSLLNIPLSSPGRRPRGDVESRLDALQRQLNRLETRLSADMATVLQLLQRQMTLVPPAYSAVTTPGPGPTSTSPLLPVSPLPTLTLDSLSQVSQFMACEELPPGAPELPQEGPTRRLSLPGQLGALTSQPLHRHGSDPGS

This experiment has as its target human ether-à-go-go-related gene (hERG) potassium channel (human, UniProt Q12809). Description: primary screen, population patch clamp on CHO cells stably expressing hERG.
As to `O=C(CSc1n[nH]c(=O)n1Cc1ccco1)c1ccc2c(c1)OCCO2`, the “hERG current change (%, negative = inhibition) at 10uM” value is on record as 15%. For `Nc1cccc(Nc2nc(OC(C(F)(F)F)C(F)(F)F)nc(OC(C(F)(F)F)C(F)(F)F)n2)c1`, the “hERG current change (%, negative = inhibition) at 10uM” value is given as -3.49%. Turning to `CC(=O)CSc1nc2ccccc2s1`, the “hERG current change (%, negative = inhibition) at 10uM” value was found to be 7.11%. Turning to `CSc1nc2nc3c(cc2c(=O)n1-c1ccccc1C)CCCC3`, the “hERG current change (%, negative = inhibition) at 10uM” value was -15.6%. In the case of `CCCCS(=O)(=O)Nc1ccc(N2CCOCC2)c(S(=O)(=O)N2CCOCC2)c1` it was -16.4%; in that of `Cn1nnc2cc(C(=O)NCc3ccco3)ccc21`, 1.15%.

Turning to `COc1ccc(C(=O)SC2=NCCS2)cc1OC`, the “hERG current change (%, negative = inhibition) at 10uM” value was -11.7%. On to `COc1ccc(CC(NC(C)=O)C(=O)NC2CCN(c3nc(C)cc(C)c3C#N)CC2)cc1OC` (stereo not shown), for which the “hERG current change (%, negative = inhibition) at 10uM” value was found to be 9.91%. `CCn1c(CNC(=O)COc2ccc(C(C)C)cc2)nnc1SCC(=O)NC1CCCCC1C` (stereo not shown): the “hERG current change (%, negative = inhibition) at 10uM” value is listed as -16.8%. The same measure for `N#C/C(=C1\CCCN1)c1nc2ccccc2c(=O)[nH]1`: 17.8%; for `Nc1cc(=O)[nH]c(SCC(=O)Nc2ccc(Oc3ccccc3)cc2)n1`: 5.51%; for `OCCC1CN(CCCn2cccn2)CCN1Cc1ccccc1` (stereo not shown): -8.62%.

With `O=C(NNS(=O)(=O)c1cc(Cl)cc(Cl)c1)c1sccc1-n1cccc1`, the “hERG current change (%, negative = inhibition) at 10uM” value came to 0.806%. In the case of `Cc1c(C(=O)Nc2nc3ccccc3[nH]2)cccc1[N+](=O)[O-]`, the “hERG current change (%, negative = inhibition) at 10uM” value is on record as -5.7%.

Regarding `CCN(CC)c1nc2ccccc2n(Cc2cccc(OC)c2)c1=O`, the “hERG current change (%, negative = inhibition) at 10uM” value came to 1.94%.

For the compound `C/C(CCN1CCc2nc(-c3ccccc3)c(-c3ccccc3)cc2C1)=N\O[C@@H](C)c1cn([C@H](CO)Cc2ccccc2)nn1`, the “hERG current change (%, negative = inhibition) at 10uM” value is on record as -18.3%. In the case of `CC1CCN(c2cc(N3CCC(C)CC3)c([N+](=O)[O-])cc2/C=C(\C#N)c2nn(-c3ccccc3)c(N)c2C#N)CC1` it was -10.2%.

On to `CC(C)CCNC(=O)C12CN(Cc3ccccc3)CC1C(c1cccc([N+](=O)[O-])c1)=NO2` (stereo not shown), for which the “hERG current change (%, negative = inhibition) at 10uM” value is listed as -32.9%. In the case of `Cc1ccc(S(=O)(=O)c2c(N)n(CCCO)c3nc4ccccc4nc23)cc1` it was -21.4%. The same measure for `COc1ccc(-c2noc(CCC(=O)NCC3CCCO3)n2)cc1` (stereo not shown): 12.3%; for `COc1ccc(NC(=O)CCNC(=O)Cn2cnc3ccccc3c2=O)cc1OC`: 16.1%; for `Cn1cnnc1SCC(=O)N1CCc2ccccc21`: 10.6%. In the case of `CCc1ccccc1C1C(=O)c2ccccc2C1=O` it was 17.9%; in that of `Cc1onc(-c2ccccc2)c1C(=O)N1CC(C)OC(C)C1` (stereo not shown), 4.66%; in that of `CC(=O)Oc1ccccc1C(=O)Oc1ccccc1C(=O)O`, 14.4%.

`N#Cc1ccc(CSc2nnc(NC(=O)CN3C(=O)C4CC=CCC4C3=O)s2)cc1` (stereo not shown): the “hERG current change (%, negative = inhibition) at 10uM” value is -20.2%. In the case of `CCOc1ccccc1N1CCN(Cc2ccc(OC)c(OC)c2)CC1` it was -69.2%; in that of `CC(=O)c1ccc(-n2c(SCC(=O)c3c[nH]c4ccccc34)nc3ccccc3c2=O)cc1`, 13.3%; in that of `O=C(Nc1ccc2c(c1)OCO2)c1cnn2c(C(F)(F)F)cc(-c3ccco3)nc12`, 2.24%.

In the case of `CCc1cc2c(=O)n(Cc3ccco3)c(SCC(=O)N(C)C3CCS(=O)(=O)C3)nc2s1` (stereo not shown), the “hERG current change (%, negative = inhibition) at 10uM” value is recorded as -79.1%.

On to `CC1CN(c2ccc(NC(=O)c3ccco3)cc2C(=O)O)CC(C)O1` (stereo not shown), for which the “hERG current change (%, negative = inhibition) at 10uM” value turned out to be 1.69%. In the case of `COc1cccc(-n2c(Cc3cc(=O)[nH]c(=O)[nH]3)nnc2SCC(=O)Nc2ccccc2)c1` it was 4.39%; in that of `COC(=O)c1c(C)[nH]c(C(=O)C(C)Sc2nnc(-c3cc(OC)c(OC)c(OC)c3)o2)c1C` (stereo not shown), -9.78%. In the case of `C=CCC1(CN2CCCC2=O)C(=O)NC(=O)NC1=O`, the “hERG current change (%, negative = inhibition) at 10uM” value was found to be 12%. Consider `CCN(CC)C(=O)C(C)N(C#N)c1nc(NC(C)C)nc(NC(C)C)n1` (stereo not shown), for which the “hERG current change (%, negative = inhibition) at 10uM” value is -17.7%. For `Cc1ccc(NS(=O)(=O)c2cc(C(=O)O)ccc2Cl)cc1`, the “hERG current change (%, negative = inhibition) at 10uM” value was found to be 7.67%. As to `CCOC(=O)c1c(NC(=O)CCl)sc(C(=O)N(CC)CC)c1C`, the “hERG current change (%, negative = inhibition) at 10uM” value is -4.98%. The same measure for `Cc1ccc(SC(=O)COc2ccc(C)c(C)c2)cc1`: 10.4%.

Consider `COc1cc(/C=N/NC(=O)Cn2cnc3c2c(=O)n(C)c(=O)n3C)cc(OC)c1OC`, for which the “hERG current change (%, negative = inhibition) at 10uM” value is 11.1%. In the case of `COCCNC(=O)CN1C(=O)/C(=C/c2ccccc2)Oc2ccc(C(C)(C)C)cc21` it was 11.8%; in that of `O=S(=O)(c1ccccc1)N1CCCc2ccccc21`, 2.96%; in that of `CC(=O)c1cccc(NC(=O)N2CCCC2C(=O)NCc2ccccc2)c1` (stereo not shown), 15%. Turning to `CSc1cccc(NC(=O)N2CCc3ccc(NC(=O)c4ccccn4)cc3C2)c1`, the “hERG current change (%, negative = inhibition) at 10uM” value is listed as -25.2%.
